# Results: PubChem BioAssay (NCATS)
# The shares of active, inactive and inconclusive entries below differ from those in the screen. Where a call stands in place of a potency, no number is given. Where the call is inconclusive, the potency comes from a doubtful curve fit. Active and inactive are the calls of the source. Calls follow the shape of the dose curve; as a rule, active = well fitted cell-killing curve with a large enough effect; inconclusive = small, poorly fitted or top-dose-only effect, or effect the other way; inactive = flat fitted curve, though single readings scatter.
# Tested on: JEG-3
# Experiment: Primary qHTS to identify gynecologic anti-cancer compounds using libraries of approved drugs and bioactive compounds (AID 1345084); also: nearly all actives have a fitted effect of over 55% in size
# Settings: Gynecologic cancer cell panel viability, ATPlite luminescence, 48 h; series mostly up to 57.5 µM
# In short: (§1)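 Five-concentration response, 48 h; readout is ATP-driven luciferase luminescence.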
# Potency is read from the fitted curve at half-maximal effect; tags tell the direction and shape of the fitted curve.
row,Structure (SMILES),Potency
1,C[C@]1(OC(=O)/C=C/c2ccccc2)C[C@@H](O)[C@]2(O)C=CO[C@@H](O[C@@H]3O[C@H](CO)[C@@H](O)[C@H](O)[C@H]3O)[C@@H]21,inactive
2,COc1c(O[C@@H]2O[C@H](CO)[C@@H](O)[C@H](O)[C@H]2O)c(CCC(=O)O)cc2ccoc12,"inconclusive: 2.51 µM [cytotoxic, full curve, poor fit]"
3,C=C[C@@](C)(CCC=C(C)C)O[C@@H]1O[C@H](CO[C@@H]2OC[C@H](O)[C@H](O)[C@H]2O)[C@@H](O)[C@H](O)[C@H]1O,inactive
4,CC1(C)CC2C(C1)C(C)(O)C13CC1(COC3=O)C2O (stereo not drawn),"inconclusive: 28.2 µM [cytotoxic, single point]"

# Tested on: OV90
# Experiment: as above
# Settings: Gynecologic cancer cell panel viability, ATPlite luminescence, 48 h; series mostly up to 57.5 µM
# In short: as §1
row,Structure (SMILES),Potency
1,NC(=O)c1ncn([C@@H]2O[C@H](CO)[C@@H](O)[C@H]2O)n1,"inconclusive: 8.91 µM [rising, partial curve]"
2,N#Cc1ccc2c(c1)CCN(CCC1CCC(NC(=O)c3ccnc4ccccc34)CC1)C2 (stereo not drawn),"inconclusive: 28.2 µM [cytotoxic, single point]"
3,CNC(=O)c1ccc2c(c1)CCO[C@H]2CCN1CCN(c2ccc(C(N)=O)cc2)CC1,inactive
4,Cc1ccc(COC(=O)N2CC[C@@H](CNc3ncccn3)[C@@H](F)C2)cc1,inactive
5,C=C1C(O)CC2C(C(=O)O)=COC(OC3OC(CO)C(O)C(O)C3OC(=O)/C=C\c3ccc(O)cc3)C12 (stereo not drawn),inactive

# Tested on: PA-1
# Experiment: as above
# Settings: Gynecologic cancer cell panel viability, ATPlite luminescence, 48 h; series mostly up to 57.5 µM
# In short: as §1
Structure (SMILES),Potency,"activity change, negative = cytotoxicity"
NC(=O)c1ncn([C@@H]2O[C@H](CO)[C@@H](O)[C@H]2O)n1,"inconclusive: 28.2 µM [cytotoxic, single point]",–
OC[C@H]1O[C@@H](Oc2cc(O)cc(-c3cc4ccc(O[C@@H]5O[C@H](CO)[C@@H](O)[C@H](O)[C@H]5O)cc4o3)c2)[C@H](O)[C@@H](O)[C@@H]1O,inactive,–
C[C@@H]1CC[C@]2(C(=O)O[C@@H]3O[C@H](CO)[C@@H](O)[C@H](O)[C@H]3O)CC[C@]3(C)C(=CCC4[C@@]5(C)C[C@@H](O)[C@H](O)[C@@](C)(C(=O)O[C@H]6[C@H](O)C[C@@]7(C)C(CC[C@]8(C)C7CC=C7[C@H]9[C@](C(=O)O[C@@H]%10O[C@H](CO)[C@@H](O)[C@H](O)[C@H]%10O)(CC[C@@H](C)[C@@]9(C)O)CC[C@]78C)[C@@]6(CO)C(=O)O)C5CC[C@]43C)[C@@H]2[C@]1(C)O (stereo partly drawn),–,inactive: 8.04% [at 6.55 µM]
CC(C)c1cc2c(c(O)c1O)[C@@]13CCCC(C)(C)[C@@H]1[C@H](OC3=O)C2=O,"inconclusive: 3.16 µM [cytotoxic, single point]",–
COC(=O)C1=COC(O[C@@H]2O[C@H](CO)[C@@H](O)[C@H](O)[C@H]2O)[C@@H]2[C@@](C)(O)[C@@H](OC(=O)/C=C/c3ccccc3)C[C@]12O (stereo partly drawn),inactive,–
CC(C)c1ccc2c(c1)C(=O)CC1[C@@](C)(C(=O)O)CCC[C@]21C (stereo partly drawn),inactive,–
CC1(C)CC[C@]2(C(=O)O[C@@H]3O[C@H](CO)[C@@H](O)[C@H](O)[C@H]3O)CC[C@]3(C)C(=CCC4[C@@]5(C)C[C@@H](O)[C@H](O)[C@@](C)(CO)C5CC[C@]43C)C2C1 (stereo partly drawn),inactive,–
O=c1[nH]c2cc(C(F)(F)F)c(N3CCOCC3)cc2n(CP(=O)(O)O)c1=O,inactive,–
CC(NCc1ccc(OCc2cccc(F)c2)cc1)C(N)=O (stereo not drawn),inactive,–
CCn1nnnc1NCc1ccc(C(C)C)cc1,inactive,–

# Tested on: SKOV3
# Experiment: as above
# Settings: Gynecologic cancer cell panel viability, ATPlite luminescence, 48 h; series mostly up to 57.5 µM
# In short: as §1
Structure (SMILES),Potency,"activity change, negative = cytotoxicity"
NC(=O)c1ncn([C@@H]2O[C@H](CO)[C@@H](O)[C@H]2O)n1,"inconclusive: 10 µM [cytotoxic, partial curve, poor fit]",–
N#Cc1ccc2c(c1)CCN(CCC1CCC(NC(=O)c3ccnc4ccccc34)CC1)C2 (stereo not drawn),active: 22.4 µM,–
O=C(O)c1ccnc(-c2cc(C(=O)NCCc3ccccc3)ccn2)c1,inactive,–
COC(=O)CCCCC(CCSS/C(CCO)=C(\C)N(C=O)Cc1cnc(C)nc1N)SC(C)=O (stereo not drawn),inactive,–
OC[C@H]1O[C@@H](Oc2cc(O)cc(-c3cc4ccc(O[C@@H]5O[C@H](CO)[C@@H](O)[C@H](O)[C@H]5O)cc4o3)c2)[C@H](O)[C@@H](O)[C@@H]1O,"inconclusive: 2 µM [rising, single point]",–
CC(O)(CC(=O)O)CC(=O)O[C@@H]1[C@@H](O)[C@H](OCCc2ccccc2)O[C@H](CO)[C@H]1O (stereo partly drawn),inactive,–
C=C(C(=O)O)[C@@H]1CC=C2CCC[C@H](C)[C@@]2(C)C1,"inconclusive: 39.8 µM [rising, single point]",–
CC(=O)O[C@]1(C(C)=O)CC[C@H]2[C@@H]3C[C@H](C)C4=CC(=O)C=C[C@]4(C)[C@@]3(F)[C@@H](O)C[C@@]21C,inactive,–
CN1CCc2nc(C(=O)N[C@@H]3C[C@@H](C(=O)N(C)C)CC[C@@H]3NC(=O)C(=O)Nc3ccc(Cl)cn3)sc2C1,inactive,–
O=C(OCCOCCO)c1ccccc1Nc1cccc(C(F)(F)F)c1,"inconclusive: 39.8 µM [cytotoxic, single point]",–
Cc1ccc(COC(=O)N2CC[C@@H](CNc3ncccn3)[C@@H](F)C2)cc1,"inconclusive: 39.8 µM [rising, single point]",–
COc1c(O[C@@H]2O[C@H](CO)[C@@H](O)[C@H](O)[C@H]2O)c(CCC(=O)O)cc2ccoc12,"inconclusive: 31.6 µM [cytotoxic, partial curve, poor fit]",–
C=C[C@@](C)(CCC=C(C)C)O[C@@H]1O[C@H](CO[C@@H]2OC[C@H](O)[C@H](O)[C@H]2O)[C@@H](O)[C@H](O)[C@H]1O,"inconclusive: 2.51 µM [cytotoxic, partial curve, poor fit]",–
C/C(CO)=C1/CCC23COC(C2)C(O)(C(=O)O)CCC13 (stereo not drawn),"inconclusive: 35.5 µM [rising, single point]",–
CC1OC(OC2C(OC3C(O[C@H]4CC[C@@]5(C)C(CC[C@]6(C)C5C(=O)C=C5C7CC(C)(C)CC(O)[C@]7(C)CC[C@]56C)C4(C)C)OC(C(=O)O)C(O)C3O)OCC(O)C2O)C(O)C(O)C1O (stereo partly drawn),"inconclusive: 3.98 µM [rising, single point]",–
O=c1[nH]c2cc(C(F)(F)F)c(N3CCOCC3)cc2n(CP(=O)(O)O)c1=O,inactive,–
COc1cc(O)cc(O[C@@H]2O[C@H](CO)[C@@H](O[C@@H]3OC[C@](O)(CO)[C@H]3O)[C@H](O)[C@H]2O)c1OC,inactive,–
O=C1N=C(N2CCOCC2)CN1c1ccc(Cl)cc1,inactive,–
C/C=C(\C)C(=O)O[C@@H]1CC2[C@@H](CC=C3C[C@@H](O[C@H]4C[C@H](OC)[C@H](O[C@H]5C[C@H](OC)[C@H](O[C@@H]6O[C@H](C)[C@@H](O[C@H]7C[C@H](OC)[C@H](O[C@@H]8O[C@H](CO)[C@@H](O)[C@H](O)[C@H]8O)[C@@H](C)O7)[C@H](OC)[C@H]6O)[C@@H](C)O5)[C@@H](C)O4)CC[C@@]32C)[C@@]2(O)CC[C@H](C(C)=O)[C@@]12C (stereo partly drawn),–,inactive: -3.56% [at 6.55 µM]
